We go through 84 compounds from ChEMBL document CHEMBL1201862, “PubChem BioAssay data set” (2004).

Usually GI50 stands for the concentration at which growth is held to half of that of the control.

Where “and” joins values, the source holds several entries; their conditions need not be identical. Equal entries are not always repeated.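 Tested at 5 concentrations; 48 h exposure; 96-well plates; endpoints linearly interpolated, else capped at highest concentration. Abbreviation: GI50, concentration required for 50% inhibition of growth.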 Calls of active or inactive are those of the source. Rule as the data show it: active = GI50 up to about 1.1 µM and inactive = higher.

This experiment relates to NCI-H322M. The experiment in a line: DTP human tumour cell line panel, 48 h.
Turning to `Nc1ccc2c(c1)C(=O)N(O)C2=O`, the GI50 was inactive: > 100 µM. Take `COCCOCCOCCC(=O)NC1CC2CCC1(C)C2(C)C` (centres undefined): the GI50 was inactive: > 100 µM. Regarding `C[N+](C)(C)CC1CCCC(C[N+](C)(C)C)C1=O` (centres undefined), the GI50 was inactive: 17.8 µM. Consider `CCOC(=O)c1cc2c(C(=O)c3ccc([N+](=O)[O-])cc3)c(C(C)=O)ccc2[nH]1`, for which the GI50 is inactive: 72.3 µM.

On to `O=C(O)C1(C(=O)O)CC1(C(=O)O)C(=O)O`, for which the GI50 was inactive: > 100 µM. The same measure for `Cc1ccc(Sc2ccc(C)cc2[N+](=O)[O-])c([N+](=O)[O-])c1`: inactive: > 100 µM; for `Cc1ccc(CC(=O)Nc2ccc(NC(=O)CNC(=O)/C=C/c3ccc(-c4ccccc4)cc3)cc2C(=O)c2ccccc2)cc1`: inactive: 5.21 µM. For `CCOC(=O)/C(=C\Nc1c(C)n(C)n(-c2ccccc2)c1=O)C(=O)c1ccccc1`, the GI50 is inactive: > 100 µM. Then `COc1ccc(-c2c(C3=NCCN3)nnn2-c2ccccc2)cc1`, with inactive: > 100 µM; and `CN(C)c1ccc(/C=C(\NC(=O)c2ccccc2)c2nc3ccccc3c(=O)o2)cc1`, with inactive: > 100 µM. On to `CCOc1ccc(/N=N/c2ccc3oc(=O)c(/C(C)=N/NC(=O)CC(=O)Nc4cccc(OC)c4)cc3c2)cc1`, for which the GI50 was inactive: 16.5 µM. The same measure for `CC1(C)CC(=O)C(=CNC(N)=S)C(=O)C1`: inactive: > 100 µM. `CN(C)c1ccc(-c2c(C#N)c(-c3ccccc3)n(NS(=O)(=O)c3ccccc3)c(=O)c2C#N)cc1`: the GI50 was inactive: 74.1 µM. Then `COc1cc(CC2c3cc(OC)c(OC)cc3CCN2C)c(Oc2cc3c(cc2OC)-c2c(O)c(OC)cc4c2C(C3)N(C)CC4)cc1OC` (centres undefined), with inactive: 19.5 µM. Then `Brc1cc2nn(-c3ccccc3)nc2c2nonc12`, with inactive: > 100 µM.

As to `O=C(C(=O)n1ccc2ccccc21)n1ccc2ccccc21`, the GI50 was inactive: > 100 µM. Then `CC1(C)OCC(C2OC3OC(C)(C)OC3C2N)O1` (centres undefined), with inactive: > 100 µM. For `Cc1nc(=O)[nH]c(NCCNCCO)c1C(=O)Nc1cccc2cc3ccccc3cc12`, the GI50 is inactive: > 100 µM. The same measure for `Cc1cc2nc3c(C(OC4OC(CO)C(O)C(O)C4O)C(O)CO)nn(-c4ccc(F)cc4)c3nc2cc1C` (centres undefined): inactive: > 100 µM; for `Nc1nc(N)c(NC(=O)CCCO)c(=O)[nH]1`: inactive: > 100 µM; for `O=C1C=CC(=O)C(CNc2ccc(C(=O)OC34CC5CC(CC(C5)C3)C4)cc2)=C1`: inactive: 18.4 µM. For `CN(C)/C=C/C(=CC=[N+](C)C)/C=C/N(C)C.[O-][Cl+3]([O-])([O-])[O-]`, the GI50 is inactive: > 100 µM. On to `COc1ccc(-c2ccc(C(=O)C=P(c3ccccc3)(c3ccccc3)c3ccccc3)cc2)cc1`, for which the GI50 is inactive: 14.3 µM.

`COc1c(O)cc2c(c1O)C(=O)/C(=C/c1ccc(O)cc1)CO2`: the GI50 is inactive: 28.1 µM. Then `Cc1ccc([N+](=O)[O-])cc1S(=O)(=O)Nc1ccc(C2=NNC(c3cccs3)C2)cc1` (centres undefined), with inactive: 25 µM; and `COC(=O)c1cn(CCCC(=O)O)nn1`, with inactive: > 100 µM.

Take `O=C1Nc2ccc(S(=O)(=O)N(CCO)CCO)cc2/C1=C1/Nc2ccccc2C1=O`: the GI50 was inactive: > 100 µM. The same measure for `CC(C)(C)c1cc(C(P(=O)(c2ccccc2)c2ccccc2)P(=O)(c2ccccc2)c2ccccc2)cc(C(C)(C)C)c1O`: inactive: 2.61 µM; for `O=c1cccccc1NCCCCCCCCNc1cccccc1=O`: inactive: > 100 µM; for `CC(=O)OC(CC(C)C)P1(=O)N(CC(C)(C)C)[C@@H]2CCCC[C@H]2N1CC(C)(C)C` (some centres undefined): inactive: 12.9 µM. For the compound `ON(Cc1ccccc1)C(=S)c1ccccc1`, the GI50 is inactive: 3.32 µM.

`CC(C)(CC1(C)NC(=O)NC1=O)OCc1ccccc1` (centres undefined): the GI50 is inactive: > 100 µM.

As to `COc1cc(OC)cc(Oc2nc3cc(F)c(F)cc3nc2-c2ccccc2)c1`, the GI50 was inactive: > 100 µM. The same measure for `Oc1ccc(Cl)cc1C1=NC(/N=C\c2ccccc2)=NC(c2ccccc2)C1` (centres undefined): inactive: 91.8 µM.

In the case of `Cc1n[nH]c(CC#N)n1`, the GI50 was inactive: > 100 µM. The same measure for `Cn1cc(C(=O)c2nccc3c2cnc2ccccc23)ccc1=O`: inactive: > 100 µM; for `COC(=O)C(=O)C(C(C)=O)C(=O)NCc1ccccc1` (centres undefined): inactive: > 100 µM; for `COc1c(C(=O)O)oc2c(OC)cccc12`: inactive: > 100 µM.

Regarding `CN(CCc1ccc(N)cc1)[C@H]1CCCC[C@H]1N1CCCC1`, the GI50 is inactive: > 100 µM. In the case of `c1cc2c(ncc3cscc32)s1`, the GI50 is inactive: > 100 µM. The same measure for `O=C(/C=C/c1ccc(Cl)cc1)c1nc2ccccc2[nH]1`: inactive: 28.9 µM; for `c1ccc(C2=NN=C3C(c4ccccc4)=Nc4ccccc4N3C2)cc1`: inactive: 10.9 µM; for `Cc1ccc(-n2c(Cn3nnc(-c4cccnc4)n3)nn(C3OC(COC(=O)c4ccccc4)C(OC(=O)c4ccccc4)C3OC(=O)c3ccccc3)c2=S)cc1` (centres undefined): inactive: > 100 µM. As for `Cc1nc2ccc(S(=O)(=O)Nc3ccccn3)cc2c(=O)n1NS(=O)(=O)c1ccccn1`, the GI50 was inactive: > 100 µM. The same measure for `CC(C)(C)c1cc(CCC(=O)Nc2ccc(Cl)cc2Cl)nc(N)n1`: inactive: > 100 µM. For `CCOC(=O)/C=C(\C(=O)OCC)n1cnc2c(N)ncnc21`, the GI50 was inactive: 16.6 µM. Then `Clc1ccc(C2=Cc3nc2c(-c2ccccc2)c2ccc([nH]2)c(-c2ccccc2)c2nc(c(-c4ccccc4)c4ccc([nH]4)c3-c3ccccc3)C=C2)cc1`, with inactive: > 62.5 µM; and `O=S(=O)(/N=c1/[nH]c2ccccc2n1S(=O)(=O)c1ccccc1)c1ccccc1`, with inactive: 59.4 µM. Turning to `c1ccc(CN2CCN3CCN(CC2)CCN(Cc2ccccc2)CC3)cc1`, the GI50 was inactive: 15 µM. Then `CCCC(=O)Nc1cc(/C=C/C(=O)N2C[C@H]3C[C@@]34C2=CC(=O)c2[nH]cc(C)c24)n(C)c1`, with active: < 0.0025 µM.

Take `S=C(Nc1ccc(Cl)cc1)c1ccc(CN2CCCCC2)s1`: the GI50 is active: 0.0617 µM. Then `O=C1OCC(C(=O)c2cccc(O)c2)C1=O` (centres undefined), with inactive: > 100 µM.

Take `CN1CSC(=S)N(c2cccc(C(F)(F)F)c2)C1`: the GI50 is inactive: 31 µM. The same measure for `CN1CCc2c1nc(-c1ccccc1)c1c2N(C)CC1`: inactive: 48.5 µM; for `COC(=O)C1(C(=O)OC)CC2=C(S(=O)(=O)c3ccccc3)C[C@H](S(=O)(=O)c3ccccc3)[C@H]2C1`: inactive: > 100 µM; for `Cc1ccc(SC(C)/C=C/NNC2=NN=C(c3ccccc3)C(c3ccccc3)N2)cc1` (centres undefined): inactive: 45.1 µM. The same measure for `Cn1c(N)c(/N=N/c2ccc(S(N)(=O)=O)cc2)c(=O)n(C)c1=O`: inactive: > 100 µM; for `Cc1ccc(-c2nc(C)c(C(=O)Nc3ccc(Cl)cc3)s2)cc1`: inactive: 19.5 µM.

Take `COC1=Nc2ccccc2S(=O)(=O)C=C1`: the GI50 is inactive: 18.2 µM. Consider `[N-]=[N+]=Nc1c([N+](=O)[O-])c(=O)n2c3c(cccc13)CCC2`, for which the GI50 is inactive: 32 µM.

As for `Nc1ccc2nc3ccc(=O)cc-3n(-c3ccccc3)c2c1`, the GI50 is inactive: > 100 µM. `COc1c(C)cc2c(c1O)C1NC(C2)[C@H](O)N2C3COC(=O)[C@@]4(CS[C@@H](c5c(OC(C)=O)c(C)c6c(c53)OCO6)C12)NCCC1=C4NC2C=CC=CC12` (some centres undefined): the GI50 was active: < 0.01 µM.

`CC12Nc3ccccc3N1C(=O)c1ccccc12` (centres undefined): the GI50 was inactive: > 100 µM. Consider `CC1(c2sccc2Cl)CC(c2sccc2Cl)=C(C#N)C(=C(C#N)C#N)N1` (centres undefined), for which the GI50 is inactive: 18.3 µM.

For the compound `O=C1C(=O)N(C2CCCCC2)C(=S)N1C1CCCCC1`, the GI50 is inactive: > 100 µM.

On to `C/C=C(\C)C(=O)OC1C2C(C)C(=O)OC2C(O)C(C)C2C=CC(=O)C21C` (centres undefined), for which the GI50 was inactive: 13.1 µM. On to `CO[C@H]1C=C[C@@]23c4cc5c(cc4CO[C@]2(O)CN(C)[C@H]3C1)OCO5`, for which the GI50 is inactive: > 100 µM. With `CSc1c(C#N)c(O)n(-c2ccc(Cl)cc2)c(=O)c1C(C)=O`, the GI50 was inactive: 36.6 µM. The same measure for `O=c1ccn(C2OC(CN(O)CCC3C(O)C(CO)OC3n3ccc(=O)[nH]c3=O)C(O)C2O)c(=O)[nH]1` (centres undefined): inactive: > 100 µM. The same measure for `CN1C(=O)CCC1c1ccc2c(c1)oc(=O)n2C` (centres undefined): inactive: > 100 µM; for `COC(=O)C1=C(O)C(C(=O)OC)C2CC(=O)CC1C2(C)C` (centres undefined): inactive: > 100 µM. Then `Cc1nc2c(nc1Cl)nc(Oc1ccc(Cl)cc1)c1ccccc12`, with inactive: > 100 µM; and `O=[N+]([O-])c1ccc(S(=O)(=O)N=Ic2ccccc2)cc1`, with inactive: > 100 µM. For `COc1ccc2c(c1)CCN1CCCc3ccccc3C21` (centres undefined), the GI50 is inactive: 42.8 µM. Then `O=C(O/N=C1\CCCC\C1=C/c1ccccc1)c1ccc([N+](=O)[O-])cc1`, with inactive: > 100 µM; and `N#C[C@H](c1ccccn1)c1nc2ccccc2nc1Cl`, with inactive: > 100 µM. Turning to `CC1(C)O[C@H](C(=O)O)[C@@H](C(=O)O)O1`, the GI50 was inactive: > 100 µM.

Take `CN1C(=O)C(C#N)C2C[C@@]1(C)Oc1ccccc12` (some centres undefined): the GI50 was inactive: > 100 µM. Then `O=C1Nc2cc(F)ccc2C1=O`, with inactive: > 100 µM; and `COc1c(Cl)cc(Cl)cc1S(=O)O`, with inactive: > 100 µM. With `COC(=O)C1=C(C)C(=O)[C@]23C(CCCC[C@H]12)C(=O)[C@H](C(=O)OC)C3C` (some centres undefined), the GI50 is inactive: > 100 µM. The same measure for `CC#CC#C/C=C1\C=CC2(OC=CC2OC(C)=O)O1` (centres undefined): inactive: > 100 µM and inactive: > 53.6 µM; for `CC1C=CC(O)[C@]2(CO)CC3(CCC12)OCCO3` (some centres undefined): inactive: > 100 µM; for `CCOC(=O)C(Cc1cn(S(=O)(=O)c2ccccc2)c2ccccc12)(NC(C)=O)C(=O)OCC`: inactive: > 100 µM.
